# Data published in PubChem BioAssay AID485294 (National Center for Advancing Translational Sciences (NCATS), 2010).
# The whole screen tested about 370,000 compounds, of which about 150 (0.041%) were called active. Inconclusive means that the source gave no clear call. Such entries were picked first, then a sample of the others. Calls come from the whole dose curve; as a rule, active = well fitted inhibition curve with a large enough effect; inconclusive = small, poorly fitted or top-dose-only effect; inactive = flat fitted curve, though single readings scatter. Potencies of inconclusive entries are left out as doubtful fits.
# Target: Beta-lactamase (Escherichia coli (strain K12)) (UniProt P00811)
# Chain of UniProt P00811 (P00811 whole entry, looked up): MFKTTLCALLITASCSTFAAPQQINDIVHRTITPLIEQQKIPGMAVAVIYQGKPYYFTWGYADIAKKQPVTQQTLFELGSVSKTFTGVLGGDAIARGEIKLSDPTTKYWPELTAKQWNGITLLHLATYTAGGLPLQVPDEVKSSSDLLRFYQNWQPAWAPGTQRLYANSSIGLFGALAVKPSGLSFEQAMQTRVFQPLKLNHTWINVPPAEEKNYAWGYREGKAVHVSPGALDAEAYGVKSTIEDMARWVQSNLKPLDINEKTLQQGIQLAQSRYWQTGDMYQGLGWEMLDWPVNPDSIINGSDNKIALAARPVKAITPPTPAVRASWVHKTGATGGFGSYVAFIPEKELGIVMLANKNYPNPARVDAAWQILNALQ
# Assay: qHTS Inhibitors of AmpC Beta-Lactamase (assay with detergent); note: nearly all actives have a fitted effect of over 25% in size
# Conditions: AmpC hydrolysis of nitrocefin, absorbance 480 nm, 0.01% Triton; series mostly up to 114 µM
# How it was run: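 AmpC (5.3 nM in the dispensed reagent) in 20 mM phosphate pH 7.0 with 0.01% (detergent screen) or 0.0001% Triton X-100 was preincubated with compounds for 15 min at room temperature. Nitrocefin was then added from an 800 uM solution, and hydrolysis was followed at 480 nm.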
# Potency is the fitted concentration of half-maximal effect; tags give direction and shape of the fitted curve.
row,SMILES,Potency
1,O=c1cc(-c2ccccc2)[nH]n1-c1nc2ccccc2s1,inactive
2,COc1ccc(S(=O)(=O)N(C)c2ccc(C(=O)N3CCCCC3)cc2)cc1,"inconclusive [inhibitor, full curve, poor fit]"
3,Cc1cccc(N2CCN(C(=O)C3CCN(S(=O)(=O)c4cccnc4)CC3)CC2)c1C,"inconclusive [inhibitor, partial curve]"
4,O=C1c2ccccc2C(=O)N1c1cccc(-c2nc3ccccc3o2)c1,inactive
5,OC1/C(=C/c2ccc(C(F)(F)F)cc2)N2CCC1CC2 (stereo not drawn),"inconclusive [inhibitor, full curve, poor fit]"
6,COc1ccc(CCNC(=O)C2CCC(CNc3c(N4CCCC4)c(=O)c3=O)CC2)cc1OC (stereo not drawn),"inconclusive [inhibitor, full curve, poor fit]"
7,O=C(CC(C(=O)O)c1ccccc1)Nc1cccc2ccccc12 (stereo not drawn),"inconclusive [inhibitor, partial curve]"
8,COc1cc(/C=C2/C(=O)ON=C2c2ccccc2)ccc1O,inactive
9,O=C(CN1CCN(Cc2ccc(Cl)cc2)C1=O)N1CCC2(CC1)OCCO2,"inconclusive [inhibitor, single point]"
10,C[C@@]12CC[C@H]3OC(=O)C=C3C1CC[C@@]13CC(CCC12)[C@](CO)(O[C@H]1O[C@H](CO)[C@@H](O)[C@H](O)[C@H]1O)C3 (stereo partly drawn),"inconclusive [inhibitor, full curve, poor fit]"
11,COc1ccc(OCC(=O)OCCN2C(=O)c3ccccc3C2=O)cc1,"inconclusive [inhibitor, partial curve, poor fit]"
12,CC(C)(C)CC(=O)Nc1nnc(SCC(=O)NC2CCCCC2)s1,"inconclusive [inhibitor, full curve]"
13,COCCc1nnc(NC(=O)Cc2ccccc2)s1,"inconclusive [inhibitor, single point]"
14,CCn1cc([N+](=O)[O-])c(=O)c2cc(F)c(N3CCOCC3)cc21,inactive
15,Cc1ccc(Cl)cc1N1CCN(C(=O)c2cn(C)c3ccc(S(=O)(=O)N4CCCCC4)cc3c2=O)CC1,"inconclusive [inhibitor, single point]"
16,C/C(=N\NC(=O)c1ccncc1)c1cccc(NC(=O)c2ccc(Cl)s2)c1,inactive
17,Cc1cccc(N=c2oc3cc(O)ccc3cc2C(N)=O)c1,"inconclusive [inhibitor, partial curve]"
18,COc1ccc(CNC(=O)CN2CCN(S(=O)(=O)c3cccs3)CC2)cc1OC,inactive
